# In PubChem BioAssay AID504832 (National Center for Advancing Translational Sciences (NCATS), 2011):
# About 18,000 (5.8%) of roughly 310,000 compounds were called active. Inconclusive means that the source gave no clear call. Such entries were picked first, then a sample of the others. Calls follow the shape of the dose curve; as a rule, active = well fitted inhibition curve with a large enough effect; inconclusive = small, poorly fitted or top-dose-only effect, or another doubt; inactive = no such curve, though single readings can be large or run the other way. No potency is given beside an inconclusive call; the fits are too rough.
# Test: Primary qHTS for delayed death inhibitors of the malarial parasite plastid, 48 hour incubation
# Conditions: P. falciparum luciferase growth in erythrocytes; series mostly up to 28.7 µM; activity change, negative = inhibition: at the top concentration
# Procedure, shortened: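 Here the parasites carry a stable luciferase gene and grow inside erythrocytes in Albumax-based RPMI medium with compound for one erythrocytic cycle. Activity is scored as loss of luminescent signal.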
# % is scaled to controls: 0 for no effect and ±100 for the full control effect; potency is read from the fitted curve at half-maximal effect; tags tell the direction and shape of the fitted curve.
Structure (SMILES),"activity change, negative = inhibition",Potency
Cc1cccn2c(=O)c3cc(C(=O)NCCN4CCOCC4)n(C)c3nc12,inactive: 67.4%,–
Cc1ccc(NC(=O)C(=O)NCCN2CCN(C(=S)Nc3ccccc3)CC2)cc1,inactive: -0.575%,–
Cc1ccc(S(=O)(=O)N(C)CC(=O)Nc2ccccc2N2CCCC2)cc1,–,"inconclusive [inhibitor, single point]"
COc1ccc(-c2csc3nc(-c4cccnc4)nc(N4CCC(C(N)=O)CC4)c23)cc1OC,inactive: -25.2%,–
O=c1oc2cc(O)ccc2cc1-c1nc2c(s1)CCc1ccccc1-2,inactive: -8.28%,–
NC1=NC[C@H](Cc2ccccc2)N1CCc1cccc(F)c1,–,active: 5.86 µM
Clc1ccc(C2Nc3cccc4cccc(c34)N2)cc1,–,"inconclusive [inhibitor, full curve, poor fit]"
O=C(CCNS(=O)(=O)c1ccc(Br)cc1)NCCCSc1ccccc1,–,"inconclusive [inhibitor, single point]"
Cc1ccccc1C(=O)c1cccn1CC(=O)NC1CCCC(C)C1C (stereo not drawn),inactive: -19.3%,–
CC1(C(=O)NCCN2CCOCC2)C=CC2(CCCCC2)N1C(=O)c1ccccc1 (stereo not drawn),inactive: 8.71%,–
COc1c(O)cccc1/C=N/NC(=O)Cn1ccnc1C,inactive: 0%,–
CCOC(=O)COc1c(Cl)cc(C2NC(=S)NC(c3ccccc3)=C2C(C)=O)cc1OC (stereo not drawn),–,"inconclusive [inhibitor, single point]"
CC(C)NC(=O)/C(C#N)=C\c1ccc(N(C)C)o1,–,"inconclusive [inhibitor, partial curve]"
COC(=O)c1sc2ccccc2c1NC(=O)c1ccc(S(=O)(=O)N2CCC(C)CC2)cc1,inactive: 5.11%,–
COc1ccc(C(=O)/C=C/c2cc(C(=O)O)cc3c2OCOC3)c(O)c1,–,"inconclusive [inhibitor, single point]"
Cc1ccc(CNC(=O)CSc2nc3[nH]ncc3c(=O)[nH]2)cc1,inactive: -10.5%,–
CCCS(=O)(=O)N1CCN(Cc2ccccc2C(F)(F)F)CC1,–,"inconclusive [inhibitor, partial curve, poor fit]"
O=C(Nc1cccc(F)c1)N1CCC(c2ccccc2)CC1,–,"inconclusive [inhibitor, single point]"
Cc1ccc2sc3ccc(NC(=O)c4ccccc4Cl)cc3c(=O)c2c1,–,"inconclusive [inhibitor, full curve]"
CC(=O)Oc1ccc(C(=O)[C@H]2[C@H]3C(=O)N(c4ccc(C)cc4C)C(=O)[C@H]3[C@@H]3C=CC=NN32)cc1,–,"inconclusive [inhibitor, full curve, poor fit]"
N#CC1(NC(=O)COC(=O)c2cc([N+](=O)[O-])ccc2N2CCCC2)CCCCC1,–,"inconclusive [inhibitor, single point]"
COc1ccc(CNC(=O)C(c2ccc(O)cc2)N(Cc2ccco2)C(=O)c2snc(C(N)=O)c2N)cc1 (stereo not drawn),–,active: 13.1 µM
CCCN(CC(=O)Nc1ccccc1C)C(=O)C1CC(=O)N(c2ccc(C)cc2)C1 (stereo not drawn),–,"inconclusive [inhibitor, partial curve]"
COc1ccc(-c2nnc(SC(C(=O)c3c[nH]c4ccccc34)c3ccccc3)n2N)cc1OC (stereo not drawn),–,active: 8.28 µM
CSc1ccccc1-n1nnnc1SCc1ccccc1,–,"inconclusive [inhibitor, single point]"

Structure (SMILES),"activity change, negative = inhibition",Potency
CCc1ccc(CN2CCCC(C(=O)Nc3ccccc3-c3ccc(OC)cc3)C2)o1 (stereo not drawn),–,"inconclusive [inhibitor, single point]"
Cn1c(=O)cc(OCCCC(=O)NC2CCCC2)c2ccccc21,–,"inconclusive [inhibitor, partial curve, poor fit]"
CCc1ccccc1NC(=S)NCC1CCN(c2ccc(OC)cc2)C1 (stereo not drawn),–,active: 11.7 µM
CCC(=O)N1CCc2cc(Br)cc(S(=O)(=O)NCCCN(C)Cc3ccccc3)c21,–,"inconclusive [inhibitor, partial curve, poor fit]"
O=[N+]([O-])c1ccc(N2CCOCC2)cc1NCc1ccccc1,–,"inconclusive [inhibitor, single point]"
O=C(NCc1nc2ccccc2[nH]1)C1=C[C@@H](c2ccc3c(c2)OCO3)C[C@@H](OCc2ccc(CO)cc2)O1,–,active: 9.28 µM
COc1cc(OC)c2ccc(=O)oc2c1C(CC(=O)N1CCOCC1)c1ccc(N(C)C)cc1 (stereo not drawn),–,"inconclusive [inhibitor, single point]"
COc1cc(C(=O)NCC2CCCCC2)cc(OC)c1OC,–,"inconclusive [inhibitor, full curve]"
Cc1cccc2cc(C#N)c(NCCNC(=S)NCCCN3CCOCC3)nc12,–,active: 10.4 µM
NS(=O)(=O)c1ccc(Nc2nc(-c3cccc([N+](=O)[O-])c3)cs2)cc1,inactive: -12.5%,–
Cc1ccc(S(=O)(=O)CCc2ccncc2)cc1,inactive: -1.31%,–
Cc1cc(O)c(C(=O)Cc2csc(C)n2)c(O)c1,–,"inconclusive [inhibitor, single point]"
O=C(CNC(=S)N(Cc1ccccc1)Cc1ccccc1F)NCc1ccc(Cl)cc1,–,"inconclusive [inhibitor, full curve]"
Cn1cc(C(=O)Nc2ccc3c(c2)CCC3)cn1,inactive: 103%,–
O=C(c1ccccc1OCc1ccccc1Br)N1CCN(c2ncccn2)CC1,–,"inconclusive [inhibitor, partial curve, poor fit]"
CCOc1ccc(S(=O)(=O)N(CC(=O)NCc2cccnc2)c2ccc(F)cc2)cc1,inactive: -12.5%,–
CCOC(=O)C1CCN(C(=O)C(C)Oc2ccc(C(=O)c3ccccc3)cc2)CC1 (stereo not drawn),–,"inconclusive [inhibitor, single point]"
CCOC(=O)Nc1ccc(OCc2nnc3c4ccccc4c(C)nn23)cc1,–,"inconclusive [inhibitor, single point]"
O=C(Nc1cccnc1)c1cc(-c2ccc(Br)cc2)on1,inactive: 32.9%,–
O=C1CC(c2cccc([N+](=O)[O-])c2)c2cc3c(cc2N1)CCC3 (stereo not drawn),–,"inconclusive [inhibitor, single point]"
COc1ccc(NC(=S)N(CCC(C)C)C(C)c2ccncc2)cc1 (stereo not drawn),–,"inconclusive [inhibitor, single point]"
COc1ccc(S(=O)(=O)NCc2ccc(C(=O)NCCCN3CC(C)CC(C)C3)cc2)cc1 (stereo not drawn),inactive: -12.3%,–
O=C(Oc1c(Br)cc(Br)c2cccnc12)N1CCCCC1,inactive: -14.1%,–
Nc1ccc2nc(-c3cccs3)[nH]c2c1,inactive: -68.3%,–
Cc1c(Cl)ccc2c(C(=O)NC(C)c3ccncc3)cc(-c3ccncc3)nc12 (stereo not drawn),–,active: 4.15 µM

Structure (SMILES),"activity change, negative = inhibition",Potency
O=C(CCN1C(=O)/C(=C/c2ccc(F)cc2)SC1=S)Nc1cc([N+](=O)[O-])ccc1O,inactive: 13.5%,–
C=CCC1(C#N)C(SC)=NC2=C(C(=O)CC(C)(C)C2)C1c1ccc(Br)cc1 (stereo not drawn),–,active: 2.94 µM
O=C(Nc1ccc(N2CCN(C(=O)c3ccccc3)CC2)c(Cl)c1)c1ccc(Br)o1,–,active: 10.4 µM
CCOC(=O)C1C(=O)CC(C)(O)C(C(=O)OCC)C1c1cccc(OC(F)(F)C(F)F)c1 (stereo not drawn),–,active: 10.4 µM
CCc1cccc(CC)c1NC(=O)CN1CCN(S(=O)(=O)c2ccccc2)CC1,–,"inconclusive [inhibitor, single point]"
COc1ccc(CNC(=O)CNC(=O)c2sc3ccccc3c2Cl)cc1OC,inactive: 5.71%,–
CCN(C(=O)CSc1nc(N)cc(=O)[nH]1)c1c(N)n(Cc2ccccc2)c(=O)[nH]c1=O,–,"inconclusive [inhibitor, partial curve]"
COc1ccc(NC(=S)NCCc2c(C)[nH]c3ccc(OC)cc23)cc1,–,"inconclusive [inhibitor, single point]"
Cc1cc(=O)n(Cc2ccccc2)c(O)c1C#N,inactive: 20.8%,–
Cc1ccc(NC(=O)c2ccc(Cl)c(S(=O)(=O)Nc3c(C)n(C)n(-c4ccccc4)c3=O)c2)cc1Cl,–,"inconclusive [inhibitor, single point]"
Cc1ccc(Cl)cc1NC(=O)COC(=O)C12CC3CC(CC(C3)C1)C2,–,active: 3.7 µM
CC12CN3C(O)C(C)(C1)CC(C)(C2)C3O (stereo not drawn),–,"inconclusive [inhibitor, single point]"
O=C(CNC(=O)c1cccs1)N=Nc1c(O)[nH]c2ccc(Br)cc12,inactive: 30.1%,–
COC(=O)c1nn(-c2ccc3c(c2)CCN3C(C)=O)cc1O,–,active: 1.31 µM
O=C(NCC1CCCO1)C1CCCN1C(=O)Nc1ccc(Cl)cc1 (stereo not drawn),inactive: 20.2%,–
COC(=O)c1c(CSc2ccc(C)c(C)c2)noc1C(=O)NCc1ccc(OC)cc1,–,"inconclusive [inhibitor, single point]"
CCN(CC)C1=CC(=[N+]2CCCC2)CC(C)(C)C1,–,active: 1.31 µM
O=C1CCC[C@@H]2Cc3[nH]c4c(Cl)ccc(Cl)c4c3[C@@H]3CCN1[C@H]23,–,"inconclusive [inhibitor, full curve, poor fit]"
CCc1nnc(NC(=O)CSc2nc3c(c(=O)n2-c2ccccc2OC)SCC3)s1,–,"inconclusive [inhibitor, partial curve]"
COc1ccccc1N1CCN(CCC(=O)Nc2ccc(F)cc2)CC1,inactive: -4.71%,–
Cc1ccc(S(=O)(=O)c2nc(S(C)(=O)=O)sc2N2CCCCC2C)cc1 (stereo not drawn),–,"inconclusive [inhibitor, partial curve]"
CC1C(=O)CCCCCCCCCC2C1(N1CCOCC1)CS2(=O)=O (stereo not drawn),–,"inconclusive [inhibitor, single point]"
CC1CCCCC12NC(=O)N(CC(=O)NCc1ccc3c(c1)OCO3)C2=O (stereo not drawn),–,"inconclusive [inhibitor, full curve, poor fit]"
